Source: PMC11263659, “Transmembrane helix interactions regulate oligomerization of the receptor tyrosine kinase EphA2” (The Journal of Biological Chemistry, 2024)

B1: EphA2 wild-type (full-length human EphA2 labelled at the C-terminus with mTurquoise or eYFP) (receptor)
chain: [letters of about 500 residues left out]IGGVAVGVVLLLVLAGVGFFIHRRRKNQRARQSPEDVYFSKSEQLKPLKTYVDPHTYEDPNQAVLKFTTEIHPSCVTRQKVIGAGEFGEVYKGMLKTSSGKKEVPVAIKTLKAGYTEKQRVDFLGEAGIMGQFSHHNIIRLEGVISKYKPMMIITEYMENGALDKFLREKDGEFSVLQLVGMLRGIAAGMKYLANMNYVHRDLAARNILVNSNLVCKVSDFGLSRVLEDDPEATYTTSGGKIPIRWTAPEAISYRKFTSASDVWSFGIVMWEVMTYGERPYWELSNHEVMKAINDGFRLPTPMDCPSAIYQLMMQCWQQERARRPKFADIVSILDKLIRAPDSLKTLADFDPRVSIRLPSTSGSEGVPFRTVSEWLESIKMQQYTEHFMAAGYTAIEKVVQMTNDDIKRIGVRLPGHQKRIAYSLLGLKDQVNTVGIPI
notes: EphA2 receptor tyrosine kinase, human, full-length, in pcDNA3.1(+); In FRET the donor copy (mTurquoise) and the acceptor copy (eYFP) were co-transfected 1:3; in FIF only the eYFP copy was used; also called EphA2 WT; WT; source: HEK293T, transiently transfected, in the plasma membrane of live cells; not shown: mTurquoise or eYFP (via a 15 amino acid (GGS)5 linker), C-terminal, kept
B2: EphA2 G540I/G544I GZ mutant (full-length human EphA2 labelled at the C-terminus with mTurquoise or eYFP) (receptor)
chain: [letters of about 500 residues left out]IGIVAVIVVLLLVLAGVGFFIHRRRKNQRARQSPEDVYFSKSEQLKPLKTYVDPHTYEDPNQAVLKFTTEIHPSCVTRQKVIGAGEFGEVYKGMLKTSSGKKEVPVAIKTLKAGYTEKQRVDFLGEAGIMGQFSHHNIIRLEGVISKYKPMMIITEYMENGALDKFLREKDGEFSVLQLVGMLRGIAAGMKYLANMNYVHRDLAARNILVNSNLVCKVSDFGLSRVLEDDPEATYTTSGGKIPIRWTAPEAISYRKFTSASDVWSFGIVMWEVMTYGERPYWELSNHEVMKAINDGFRLPTPMDCPSAIYQLMMQCWQQERARRPKFADIVSILDKLIRAPDSLKTLADFDPRVSIRLPSTSGSEGVPFRTVSEWLESIKMQQYTEHFMAAGYTAIEKVVQMTNDDIKRIGVRLPGHQKRIAYSLLGLKDQVNTVGIPI
notes: EphA2 receptor tyrosine kinase, human, full-length, glycine zipper (GZ) variant in the TM helix; In FRET the donor copy (mTurquoise) and the acceptor copy (eYFP) were co-transfected 1:3; in FIF only the eYFP copy was used; also called EphA2 GZ; glycine zipper variant; source: HEK293T, transiently transfected, in the plasma membrane of live cells; not shown: mTurquoise or eYFP (via a 15 amino acid …)
B3: EphA2 G539I/A542I/G553I HR mutant (full-length human EphA2 labelled at the C-terminus with mTurquoise or eYFP) (receptor)
chain: [letters of about 500 residues left out]IIGVIVGVVLLLVLAIVGFFIHRRRKNQRARQSPEDVYFSKSEQLKPLKTYVDPHTYEDPNQAVLKFTTEIHPSCVTRQKVIGAGEFGEVYKGMLKTSSGKKEVPVAIKTLKAGYTEKQRVDFLGEAGIMGQFSHHNIIRLEGVISKYKPMMIITEYMENGALDKFLREKDGEFSVLQLVGMLRGIAAGMKYLANMNYVHRDLAARNILVNSNLVCKVSDFGLSRVLEDDPEATYTTSGGKIPIRWTAPEAISYRKFTSASDVWSFGIVMWEVMTYGERPYWELSNHEVMKAINDGFRLPTPMDCPSAIYQLMMQCWQQERARRPKFADIVSILDKLIRAPDSLKTLADFDPRVSIRLPSTSGSEGVPFRTVSEWLESIKMQQYTEHFMAAGYTAIEKVVQMTNDDIKRIGVRLPGHQKRIAYSLLGLKDQVNTVGIPI
notes: EphA2 receptor tyrosine kinase, human, full-length, heptad repeat (HR) variant in the TM helix; In FRET the donor copy (mTurquoise) and the acceptor copy (eYFP) were co-transfected 1:3; in FIF only the eYFP copy was used; also called EphA2 HR; heptad repeat variant; source: HEK293T, transiently transfected, in the plasma membrane of live cells; not shown: mTurquoise or eYFP (via a 15 amino acid …)

Target: the molecule itself
Assay: Fluorescence Intensity Fluctuations (FIF) spectrometry; confocal microscope, plasma membrane of HEK293T cells expressing EphA2-eYFP, hypoosmotic medium; molecular brightness in 15 x 15 pixel segments, log-normal fit; with 200 nM m-ephrinA1
With B1 the “mean of the FIF molecular brightness distribution” value (from here on “mean”) was 5.74 ± 0.07.
In the case of B2, the “mean” value is reported as 4.93 ± 0.08.
In the case of B3, the “mean” value is reported as 5.04 ± 0.05.

Target: the molecule itself
Assay: Fluorescence Intensity Fluctuations (FIF) spectrometry; confocal microscope, plasma membrane of HEK293T cells expressing EphA2-eYFP, hypoosmotic medium; molecular brightness in 15 x 15 pixel segments, log-normal fit; with 50 nM ephrinA1-Fc
With B1 the “mean” value was 5.97 ± 0.09.
In the case of B2, the “mean” value is reported as 4.88 ± 0.07.
With B3 the “mean” value was 5.86 ± 0.11.
